From PubChem BioAssay AID588342 (National Center for Advancing Translational Sciences (NCATS), 2011)
Where “and” joins values, the source holds several entries; their conditions need not be identical. Identical values can stand only once. About 25,000 (6.9%) of roughly 360,000 compounds were called active. Inconclusive results, whose numbers are uncertain, are shown with a selection of clear calls. The call rests on the fitted dose curve; in most records, active means well fitted inhibition curve with a large enough effect; inconclusive means small, poorly fitted or top-dose-only effect; inactive means flat fitted curve, though single readings scatter. A potency beside an inconclusive call is a rough fit, not a confirmed value.
Further: nearly all actives have a fitted effect of over 55% in size.
Potency means the concentration at half of the fitted maximal effect; tags describe the fitted curve by direction and shape.

Each compound was assayed against Luciferin 4-monooxygenase (Photinus pyralis) (UniProt P08659) (assay: qHTS profiling assay for firefly luciferase inhibitor/activator using purifed enzyme and Km concentrations of substrates (counterscreen for miR-21 project)). Details: purified FLuc, luminescence inhibition; series mostly up to 57.5 µM.
Chain of UniProt P08659 (P08659 whole entry, looked up): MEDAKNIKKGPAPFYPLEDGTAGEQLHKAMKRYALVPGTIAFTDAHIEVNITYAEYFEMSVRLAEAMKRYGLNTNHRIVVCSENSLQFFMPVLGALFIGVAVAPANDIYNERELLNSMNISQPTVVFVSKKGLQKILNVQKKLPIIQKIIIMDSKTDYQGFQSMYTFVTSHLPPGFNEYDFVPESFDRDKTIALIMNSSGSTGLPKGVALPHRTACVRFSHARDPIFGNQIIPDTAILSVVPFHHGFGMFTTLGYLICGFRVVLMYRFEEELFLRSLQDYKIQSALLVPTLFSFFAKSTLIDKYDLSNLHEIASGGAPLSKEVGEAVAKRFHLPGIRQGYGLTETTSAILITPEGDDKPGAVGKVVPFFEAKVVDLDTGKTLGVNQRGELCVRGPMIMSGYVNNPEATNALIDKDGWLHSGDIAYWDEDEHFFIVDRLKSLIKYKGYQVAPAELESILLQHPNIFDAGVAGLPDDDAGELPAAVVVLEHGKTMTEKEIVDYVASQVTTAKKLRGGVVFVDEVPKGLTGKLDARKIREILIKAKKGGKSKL
Summary of the method: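 Purified P. pyralis luciferase, 10 nM final, with Km-level 10 uM D-luciferin and 10 uM ATP in 50 mM Tris acetate pH 7.5, 10 mM Mg acetate, 0.01% Tween-20, 0.05% BSA; 6-point qHTS titration about 60 µM downward; luminescence read.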
In the case of O=C(CN1C(=O)c2ccccc2S1(=O)=O)Nc1ccccn1, the Potency is reported as “inactive”.
With CCOc1ncccc1C(=O)NNC(=O)c1cccc(S(=O)(=O)Nc2ccc(OC)cc2)c1 the Potency was “inactive”.
With O=C(Nc1cccc(C(F)(F)F)c1)c1ccc2nc(N3C(=O)CCC3=O)sc2c1 the Potency was inconclusive: 26.9 µM [inhibitor, partial curve, poor fit].
With Cc1nc(-c2ccccn2)sc1C(=O)Nc1ccc(F)cc1F the Potency was “inactive”.
For O=C(c1nc2ccccc2s1)N1CCN(c2ccccn2)CC1, the Potency was inconclusive: 23.9 µM [inhibitor, partial curve].
O=c1[nH]c(-c2cccs2)nc2ccccc12 was tested, and the Potency was inconclusive: 23.9 µM [inhibitor, partial curve, poor fit].
For CCC(=O)N(Cc1ccco1)c1nc(-c2ccc(OC)cc2)cs1, the Potency was “inactive”.
With Cc1nc(C)c(-c2csc(Nc3ccc(C(=O)O)c(O)c3)n2)s1 the Potency was active: 12 µM.
For CCC1=C(OC(=O)N(CC)CC)N2C(=O)OC(=NCC3CC3)[C@]2(Cc2ccccc2)[C@H]2C1=CC[C@H]1C(=O)N(c3ccccc3)C(=O)[C@H]12, the Potency was “inactive”.
For CC(=O)N1N=C2/C(=C/c3ccccc3)CCCC2C1c1ccccc1 (stereo unspecified), the Potency was inconclusive: 26.9 µM [inhibitor, single point].
In the case of O=C(CSc1nc2[nH]ncc2c(=O)[nH]1)Nc1ccc(OC(F)(F)F)cc1, the Potency is reported as inconclusive: 23.9 µM [inhibitor, partial curve, poor fit].
With C/C(=C\C(=O)c1ccc(Cl)s1)N(C)C the Potency was inconclusive: 21.3 µM [inhibitor, single point].
CC(C)NC(=S)NC(=O)c1ccc(-c2ccccc2)cc1 was tested, and the Potency was inconclusive: 15.1 µM [inhibitor, partial curve].
In the case of COc1cc(NC(=O)CN(C)S(=O)(=O)c2ccc3nc(C)sc3c2)cc(OC)c1, the Potency is reported as “inactive”.
With O=C(Nc1cccc(C(=O)OCc2cc(=O)n3c4c(sc3n2)CCCC4)c1)c1ccccc1 the Potency was active: 2.39 µM.
With O=C(CSc1nnc2ccccn12)Nc1ccc2c(c1)OCCO2 the Potency was inconclusive: 26.9 µM [inhibitor, partial curve].
In the case of Cc1ccc(-n2nc(C(=O)N3CCN(c4cc(Cl)ccc4C)CC3)c3c4ccccc4n(C)c3c2=O)cc1, the Potency is reported as “inactive”.
With Cc1ccc(Cl)cc1-n1ncc2c(Nc3cccc(C)c3C)ncnc21 the Potency was “inactive”.
For O=S(=O)(Cc1nc2ccccc2s1)c1ccccc1, the Potency was active: 12 µM.
Cc1nc(-c2ccccn2)sc1C(=O)Nc1ccc(Cl)c(Cl)c1 was tested, and the Potency was inconclusive: 23.9 µM [inhibitor, single point].
O=C(Nc1nnc(C2CC2)o1)c1ccc(S(=O)(=O)N2CCc3ccccc3C2)cc1 was tested, and the Potency was inconclusive: 23.9 µM [inhibitor, partial curve, poor fit].
For Cc1cnn(C(=S)NCc2ccc(Cl)cc2)c1, the Potency was “inactive”.
With NC(=S)N/N=C/c1c[nH]c2ccc(OCc3ccccc3)cc12 the Potency was active: 21.3 µM.
For Cc1ccn2c(=O)nc(SCC(=O)N3CCCCC3)nc2c1, the Potency was “inactive”.
With Cc1ccc(NC(=O)C(=O)Nc2ccc(C)cn2)nc1 the Potency was “inactive”.
For COCC(C)NC(=O)c1cc(-c2cccc(OC)c2)on1 (stereo unspecified), the Potency was inconclusive: 19 µM [inhibitor, partial curve].
Cc1ccc(N/N=C/c2ccc(N3CCOCC3)cc2)cc1C was tested, and the Potency was inconclusive: 23.9 µM [inhibitor, single point].
For COCc1ccc(C(=O)Nc2ccccc2C(=O)NCc2cccnc2)cc1, the Potency was inconclusive: 16.9 µM [inhibitor, partial curve].
For CN1CCN(NC(=O)c2cc(-c3ccc(Br)s3)nc3ccccc23)CC1, the Potency was inconclusive: 23.9 µM [inhibitor, single point].
With Nc1ccccc1C(=O)Nc1nccs1 the Potency was inconclusive: 30.1 µM [inhibitor, single point].
For COCC(C)NC(=O)c1cc2cc(OC)ccc2[nH]1 (stereo unspecified), the Potency was inconclusive: 21.3 µM [inhibitor, partial curve, poor fit].
With Cc1nn2cc(-c3ccc(-c4ccccc4)cc3)nc2s1 the Potency was active: 0.536 µM.
O=C(NCc1ccccc1)c1cnc(N2CCCCC2)c2ccccc12 was tested, and the Potency was inconclusive: 26.9 µM [inhibitor, partial curve, poor fit].
O=C(CCC(=O)Nc1ccccc1)N/N=C/c1ccc2c(c1)OCO2 was tested, and the Potency was inconclusive: 23.9 µM [inhibitor, single point].
With CCN(CC(=O)Nc1ccc(NC(C)=O)cc1)C(=O)c1cn(-c2ccccc2)nc1-c1cccs1 the Potency was active: 21.3 µM.
COc1cccc(Nc2nc3ccc(C)cc3nc2-n2nc(C)cc2C)c1 was tested, and the Potency was “inactive”.
For COc1ccccc1/C=C/C(=O)Nc1ccc(S(=O)(=O)Nc2cc(C)nc(C)n2)cc1, the Potency was inconclusive: 26.9 µM [inhibitor, single point].
In the case of COc1ccc(/C=N/NC(=O)CN(C)S(=O)(=O)c2ccc(NC(C)=O)cc2)cc1, the Potency is reported as inconclusive: 26.9 µM [inhibitor, partial curve].
With Nc1cc2c(cc1[N+](=O)[O-])OCCO2 the Potency was inconclusive: 37.9 µM [inhibitor, partial curve, poor fit].
With CC(=O)Nc1ccc(C(=O)/C=C/c2ccc[nH]2)cc1 the Potency was active: 8.49 µM.
CCCC(=O)N(Cc1cc(=O)[nH]c2ccccc12)c1ccccc1OC was tested, and the Potency was “inactive”.
O=C(NNC(=O)C1[C@H]2CCCC[C@@H]12)c1ccc(=O)oc1 (stereo partly specified) was tested, and the Potency was inconclusive: 21.3 µM [inhibitor, partial curve].
For CCN(c1cccc(C)c1)c1ncnc2c1cnn2-c1cccc(Cl)c1, the Potency was inconclusive: 15.1 µM [inhibitor, partial curve, poor fit].
In the case of O=C(COc1ccccc1)NNC(=O)c1cc2ccccc2o1, the Potency is reported as “inactive”.
Oc1ccc(N=Cc2ccc(OCc3ccccc3)cc2)cc1 was tested, and the Potency was active: 13.5 µM.
In the case of COc1cc(OC)c(N(C)C(=O)c2sc3nc4n(c(=O)c3c2C)CCCC4)cc1Cl, the Potency is reported as inconclusive: 10.7 µM [inhibitor, partial curve].
With C/C(=N\Oc1cccc(F)n1)c1ccc(Cl)cc1Cl the Potency was inconclusive: 37.9 µM [inhibitor, partial curve, poor fit].
With NS(=O)(=O)c1ccc(NC(=O)COC(=O)COc2ccc3ccccc3c2)cc1 the Potency was inconclusive: 37.9 µM [inhibitor, partial curve, poor fit].
For CCOc1cccc(C(=O)Nc2nnc(-c3ccco3)s2)c1, the Potency was active: 4.78 µM.
For Cn1c(NC(=O)c2ccccc2NC(=O)C(C)(C)C)nc2ccccc21, the Potency was active: 26.9 µM.
Cn1c(=O)n(CCCc2ccccc2)c(=O)c2c1nc1n2CCN1c1ccc(F)cc1 was tested, and the Potency was inconclusive: 9.53 µM [inhibitor, partial curve].
With COc1ccc(CCC(=O)N(C)CC(=O)Nc2ccc(Cl)c(C(F)(F)F)c2)cc1 the Potency was “inactive”.
For Cc1cccnc1NC(=S)Nc1ccc(F)cc1F, the Potency was inconclusive: 21.3 µM [inhibitor, partial curve, poor fit].
With O=C(c1cc(-c2ccc(O)cc2)on1)N1CCN(c2ccccc2)CC1 the Potency was inconclusive: 23.9 µM [inhibitor, single point] and inconclusive: 26.9 µM [inhibitor, single point].
For COc1cccc(NC(=O)c2cccc(N3C(=O)C4C5C=CC(C5)C4C3=O)c2)c1 (stereo unspecified), the Potency was inconclusive: 30.1 µM [inhibitor, partial curve, poor fit].
COc1cccc(C(=O)Nc2sc(C(C)C)cc2C(N)=O)c1OC was tested, and the Potency was active: 21.3 µM.
In the case of Cc1ccc(NC(=O)C(C)Sc2nnc(C)n2C)cc1 (stereo unspecified), the Potency is reported as inconclusive: 37.9 µM [inhibitor, partial curve, poor fit].
For Cc1ccc(NCCC(=O)c2cccs2)cc1Cl, the Potency was inconclusive: 37.9 µM [inhibitor, partial curve, poor fit].
For CC(=O)Cc1nsc(NC(=O)c2ccc(COc3ccc(C)cc3)o2)n1, the Potency was inconclusive: 23.9 µM [inhibitor, single point].
In the case of CC(C)(C)c1ccc(C(=O)NCC(=O)OCC(=O)Nc2ccccc2[N+](=O)[O-])cc1, the Potency is reported as inconclusive: 10.7 µM [inhibitor, single point].
In the case of Cc1cccc2nc(CSc3nnc(N)s3)cn12, the Potency is reported as “inactive”.
With CCOC(=O)c1sc(/N=C/C2=C(O)CC(C)(C)CC2=O)c(C(=O)OCC)c1C the Potency was active: 19 µM.
In the case of Cc1nn(C)c(C)c1CNC(=O)Nc1cccc(Cl)c1, the Potency is reported as inconclusive: 30.1 µM [inhibitor, single point].
For COc1cc(/C=N\Nc2cc(=O)n(C)c(=O)n2C)ccc1O, the Potency was inconclusive: 26.9 µM [inhibitor, single point].
In the case of COCCNC(=O)C(c1cccnc1)N(Cc1ccccc1)C(=O)Cn1nnc2ccccc21 (stereo unspecified), the Potency is reported as inconclusive: 37.9 µM [inhibitor, partial curve, poor fit].
With S=C(NCc1ccco1)N1CCN(c2nc(-c3ccccc3)cs2)CC1 the Potency was inconclusive: 21.3 µM [inhibitor, partial curve, poor fit].
In the case of Cc1ccc(NC(=O)Cn2nnc(C(=O)NCc3ccc4c(c3)OCO4)c2N)cc1Cl, the Potency is reported as “inactive”.
In the case of CC1(C)CC(=O)c2sc(NS(=O)(=O)c3ccccc3)nc2C1, the Potency is reported as inconclusive: 19 µM [inhibitor, partial curve, poor fit].
In the case of CCOC(=O)CSc1nnc(NC(=O)c2cccc(S(=O)(=O)N3CCCC3)c2)s1, the Potency is reported as active: 23.9 µM.
COc1ccc(-c2nn(-c3cccc(F)c3)c3c2cnc2cc(OC)c(OC)cc23)cc1 was tested, and the Potency was “inactive”.
With O=C(CCCCn1c(=O)c2ccccc2n(CC(=O)Nc2cccc(F)c2)c1=O)NCCc1ccccc1 the Potency was “inactive”.
